PubChem BioAssay AID1645887 (National Center for Advancing Translational Sciences (NCATS), 2021)
Several values for one entry are separate records, joined by “and”; a condition that tells them apart may be missing. Identical values can stand only once. Screen size: about 16,000 compounds; about 40 (0.2%) were called active. Another 1% or so got no clear call; they are omitted. Calls follow the shape of the dose curve; as a rule, active = well fitted activation curve with a large enough effect; inconclusive = small, poorly fitted or top-dose-only effect, or another doubt; inactive = no such curve, though single readings can be large or run the other way. The list shows a part of the results. Residues, ends and D or L forms follow the SMILES beside them.

biological target: Rap guanine nucleotide exchange factor 4 (Homo sapiens) (UniProt Q8WZA2); assay: Validation qHTS for agonist of cAMP-regulated guanine nucleotide exchange factor 4 (EPAC2); settings: EPAC2 Rap1B BODIPY-GDP exchange, fluorescence; activation: stronger effect = higher value;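 also: exchange makes BODIPY-GDP fluorescence drop when released from Rap1B; series mostly up to about 150 µM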
UniProt Q8WZA2, sequence (Q8WZA2 whole entry, looked up): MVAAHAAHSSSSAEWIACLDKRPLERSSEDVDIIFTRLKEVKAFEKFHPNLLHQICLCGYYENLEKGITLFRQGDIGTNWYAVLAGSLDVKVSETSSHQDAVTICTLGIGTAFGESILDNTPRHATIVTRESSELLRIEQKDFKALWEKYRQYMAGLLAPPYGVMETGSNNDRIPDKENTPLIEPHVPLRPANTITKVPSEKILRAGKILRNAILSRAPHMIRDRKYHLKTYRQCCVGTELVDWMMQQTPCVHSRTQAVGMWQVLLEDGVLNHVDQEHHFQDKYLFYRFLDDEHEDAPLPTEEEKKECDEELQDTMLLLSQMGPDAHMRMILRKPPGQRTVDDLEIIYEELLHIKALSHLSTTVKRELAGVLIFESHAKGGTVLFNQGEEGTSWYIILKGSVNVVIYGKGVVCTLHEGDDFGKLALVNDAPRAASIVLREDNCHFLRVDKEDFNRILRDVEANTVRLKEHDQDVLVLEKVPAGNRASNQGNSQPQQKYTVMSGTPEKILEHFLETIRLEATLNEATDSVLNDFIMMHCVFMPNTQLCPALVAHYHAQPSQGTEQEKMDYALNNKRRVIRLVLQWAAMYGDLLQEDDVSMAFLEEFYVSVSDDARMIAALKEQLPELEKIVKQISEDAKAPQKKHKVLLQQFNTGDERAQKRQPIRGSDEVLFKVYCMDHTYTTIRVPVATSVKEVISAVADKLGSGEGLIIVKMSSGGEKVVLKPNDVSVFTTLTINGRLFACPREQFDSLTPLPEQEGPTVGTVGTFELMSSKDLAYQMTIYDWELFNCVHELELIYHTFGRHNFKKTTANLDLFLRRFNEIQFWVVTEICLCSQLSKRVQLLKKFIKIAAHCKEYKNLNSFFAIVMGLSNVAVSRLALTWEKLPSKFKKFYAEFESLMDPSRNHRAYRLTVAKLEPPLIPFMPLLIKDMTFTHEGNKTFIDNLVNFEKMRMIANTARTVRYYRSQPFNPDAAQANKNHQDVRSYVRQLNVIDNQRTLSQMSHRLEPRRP
Outline: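 Fluorescent exchange assay: 100 nM EPAC2 with 250 nM RAP1B-BODIPY-GDP and 50 uM GDP; compound added, 5 min at room temperature, then read (ex 480/em 540 nm) every 5 min for 30 min. Normalized to 6.5 mM cAMP agonist control.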
% is scaled to controls: 0 for no effect and ±100 for the full control effect.

activation, inactive:
Cc1c(C(=O)NCC2CCCN(C)C2)cnn1-c1nccc(-c2ccco2)n1 (stereo not given) -7.95%
COCC(=O)Nc1cc(C(=O)N2CCSCC2)cc2nc(-c3ccccc3)n(C)c12 -12.2%
COC(=O)[C@H]1[C@@H]2C[C@@H]3c4[nH]c5ccccc5c4CCN3C[C@H]2CC[C@H]1O 0.0575%
c1ccc(Nc2ncncc2-c2ccc3c(c2)OCO3)cc1 -22%
COc1cc(-c2noc(C)c2C#Cc2ccc(N)cc2)cc(OC)c1OC -10.7%
NC1(C(=O)O)CCc2cc(P(=O)(O)O)ccc21 (stereo not given) 15.7%
Cc1cccc(CNc2ccnc(-c3cccc(NS(C)(=O)=O)c3)n2)c1 -16.9%
O=C(NC[C@H]1CCCCN1)c1cc(OCC(F)(F)F)ccc1OCC(F)(F)F -13.1%
C=C1O[C@@](CO)(n2cnc3c(N)ncnc32)[C@H](O)[C@@H]1O 2.13%
CN(C)Cc1ccccc1-c1cc(-n2ccnc2)ncn1 -18%
CN(C)Cc1ccccc1-c1cc(NCc2ccccc2)ncn1 -16.5%
Cn1c(=O)c(CCc2ccccc2)nc2cnc(N3CCNCC3)nc21 2.59%
Cc1ccccc1CN1[C@@H]2c3ccccc3C[C@@H]2OCCS1(=O)=O -24.6%
C[C@@]12CCC(OC(=O)c3ccccc3)CC1CCc1ccccc12 (stereo not given in full) 2.88%
CC1(C)SC2C(NC(=O)COc3ccccc3)C(=O)N2C1C(=O)O (stereo not given) 3.14%
COC(=O)[C@H](Cc1ccccc1)NC(=O)[C@@H](N)CC(=O)O (H-Asp-Phe-OMe) -2.44% and -4.96%
COc1ccc2c(c1)-c1nc(-n3ncc(C(=O)N(C)CC4CCCN(C)C4)c3C3CC3)ncc1CC2 (stereo not given) -7.27%
CCOC(=O)N1CCN(C(=O)c2ccc(-c3ccccc3OC)nc2N2CCC(N3CCCC(CO)C3)CC2)CC1 (stereo not given) -0.766%
C1CCC(N=C(NC23CC4CC(CC(C4)C2)C3)N2CCOCC2)CC1 0.0371%
NC1CCN(O)C1=O (stereo not given) -17.5%
O=C(NCCCN1CCOCC1)c1ccc(Cl)cc1 -11%
O=C1CC[C@@H](O)CCN1CC[C@H](Sc1ccc(Br)cc1)c1ccccc1 -23.9%
COC(=O)c1c(OC)cc2c(c1C)Oc1c(Cl)c(O)c(Cl)c(C)c1C(=O)O2 -27.2%
CN(C)c1ccc(-c2cncnc2NCc2ccccc2)cc1 -19.7%
COc1ccc2c(c1)OC(C)CN(CC(=O)NCc1cn[nH]c1-c1ccc(F)cc1)C2 (stereo not given) -9.81%
O=C(O)[C@@H]1[C@H]2C[C@H]3c4[nH]c5ccccc5c4CCN3C[C@@H]2CC[C@@H]1O 8.17%
C=CC1=C(C)C2=Cc3c(C=C)c(C)c4[n]3[Sn+2][n]3c(c(C)c(CCC(=O)O)c3=CC3=NC(=C4)C(C)=C3CCC(=O)O)=CC1=N2 -9.32%
CC(C)c1c(C(=O)NCc2ccccn2)cnn1-c1nccc(-c2ccccc2F)n1 1.63%
Cc1ccccc1-c1cnc(-c2ccncc2)nc1C1CCCN(Cc2ccccc2O)C1 (stereo not given) 10.6%
O=C(NCc1nnc2n1CCN(Cc1cc3c(cc1Cl)OCO3)CC2)c1cccc(F)c1 -5.25%
COc1cccc(CNC(=O)c2c(OC)cc(=O)n3c2CCN(C(=O)c2ccc(C)s2)CC3)c1 4.94%
Cc1ccccc1-c1cncnc1N(C)Cc1ccco1 -3.37%
CCCCCCCCCCCCCCCCCCN(CCCCCCCCCCCCCCCCCC)c1ccc(C=O)cc1 -13.7%
COC(=O)[C@@H]1CCCN1Cc1ccc2c(c1)CN(Cc1ccccc1C)CCO2 0.219%
Cc1ccccc1N=Nc1ccc(N=Nc2c(O)ccc3ccccc23)c(C)c1 -21.4%
O=C(CCC1CCN(Cc2ccccc2)CC1)c1ccc2c(c1)NCCCC2 3.04%
O=C(O)c1c2ccccc2cc2ccccc12 -10.3% and 0.573%
CO/N=C(\C(=O)N[C@@H]1C(=O)N2C(C(=O)O)=C(COC(C)=O)CS[C@H]12)c1csc(N)n1 -18.1%
CN(Cc1ccco1)c1nc(-c2ccccc2Cl)nc2ccccc12 4.05%
Cc1cnc(C)c(-c2cc(F)cc3c2OC(CNC(=O)c2cc(Cl)ccc2F)C3)n1 (stereo not given) -12.5%
Cc1cc2cc3c(C)cc(=O)oc3c(C)c2o1 -3.98% and 5.85%
CC(=O)Nc1c(I)cc(I)c(C(=O)O)c1I -7.72%
CN1C(C(=O)Nc2ccccn2)C(=O)c2sc(Cl)cc2S1(=O)=O (stereo not given) 4.29%
CO/N=C(/C(=O)N[C@@H]1C(=O)N2C(C(=O)O)=C(COC(N)=O)CS[C@H]12)c1ccco1 -20.7% and 12.8%
CC(C)(C)CC(C)(C)N=C1Nc2ccc(Cl)cc2N[C@]12C[C@H]1CCCC(=O)N3CC[C@@H](C2)[C@@H]13 -26.4%
CC(=O)Nc1nnc(S(N)(=O)=O)s1 14.9% and 8.62% and -9.53%
COc1cccc(C(=O)NC(C)c2nnc3n2CCN(CC=C(C)C)CC3)c1 (stereo not given) -30.4%
COC1=CC(=O)C(O)=C/C1=C\C=C\c1ccccc1 -5.7%
CC(C)Oc1ccc2c(=O)c(-c3ccccc3)coc2c1 -10.9% and -20%
O=C(Oc1ccccc1)N1CCC2(CC1)CN(c1ccccc1)C2 -5.57%
C=C1c2c(Cl)ccc(O)c2C(O)=C2C(=O)[C@]3(O)C(O)=C(C(N)=O)C(=O)[C@@H](N(C)C)[C@@H]3[C@@H](O)[C@H]12 -4.07%
Clc1ccc2nsnc2c1NC1=NCCN1 9.52% and -22.2% and -30.1%
CC(C)C1=CC2=CC[C@@H]3[C@](C)(CO)CCC[C@]3(C)C2CC1 (stereo not given in full) -31.9%
N#Cc1ccccc1-c1ccc2ncnc(NCc3ccccc3)c2c1 -0.93%
O=[N+]([O-])c1c(Cl)cccc1-c1c[nH]cc1Cl 12.6%
COc1cccc(CNC(=O)c2c(OC)cc(=O)n3c2CCN(C(=O)c2ccoc2C)CC3)c1 -44.1%
c1ccc(-c2cccc(N3CC4(CCNCC4)C3)c2)cc1 8.37%
COc1ccc(-n2c(=O)c(-c3cn(C)c4ccccc34)nc3cnc(OC)nc32)cc1 -7.91%
CN(C)c1ccc(-c2nc(NC3CCNCC3)c3ccccc3n2)cc1 -7.16%
N#CCCn1c(=O)c(-c2ccc(Cl)cc2)nc2cnc(OCc3ccccc3)nc21 -19.5%
O=C(c1cccc(F)c1)N1CCC2(CCCN(c3ccc(-c4ccccc4)cc3)C2)CC1 -3.16%
Cc1nc(CC(=O)N2CCC(n3c(C4CCC4)nc4cccnc43)CC2)cs1 -10.7%
O=C(O)c1ccc2nc(-c3ccccc3)c(-c3ccccc3)nc2c1 11.6%
COc1cc(O)c2c(=O)cc(C)oc2c1CC=C(C)C 4.94% and -15.5%
COC(=O)N1CCC2(CCCN(c3ncccn3)C2)CC1 1.68%
O=C1CC[C@H](N2C(=O)c3ccccc3C2=O)C(=O)N1 -0.276%
OC/C=C/c1ccccc1 -13.4%
CCOC(=O)C1=C(N)Oc2ccc(Br)cc2C1C(C#N)C(=O)OCC (stereo not given) 9.24%
CC(C)(C)c1cc(O)c(C(C)(C)C)cc1O -11.4% and 10.5%
C=Cc1ccc(S(=O)(=O)O)cc1 -9.76%
CCC1CN(CC(=O)NC(C)c2cn(C)nc2C)Cc2cc(OC)ccc2O1 (stereo not given) -9.96%
CC(C)NC(=O)N1CCC2(CC1)CCN(C(=O)c1cccc(F)c1)CC2 -10.2%
CN(C)c1ncc2nc(-c3ccc(Cl)cc3)c(=O)n(CCC#N)c2n1 -2.32%
CCCCOc1cc(C(=O)OCCN(CC)CC)ccc1N 1.88%
CC1(C)S[C@@H]2[C@H](NC(=O)C(N)c3ccccc3)C(=O)N2[C@H]1C(=O)OC1OC(=O)c2ccccc21 (stereo not given in full) 9.74%
Cc1nc2n(c(=O)c1CCN1CCC(c3noc4cc(F)ccc34)CC1)CCC[C@H]2O -4.02%
COc1ccc(C(=O)N2CCC3(CCCN(C(c4ccccc4)c4ccccc4)C3)CC2)cc1 -12.8%
CN1CCCCC1C(=O)N1CCC(Oc2cccc(CN3CCN(c4ccccn4)CC3)c2)CC1 (stereo not given) -0.0243%
CN(C)C(=O)c1ccc(-c2ccc3ncnc(NCc4cccs4)c3c2)cc1 -13.7%
CCCCC[C@H](O)/C=C/[C@H]1C(=O)C=C[C@@H]1C/C=C\CCCC(=O)O -10.8%
Nc1c[n+](N2CCOCC2)no1 -10.1%
CNc1nc(-c2cccc(C#N)c2)nc2ccccc12 -19.4%
C[N+](C)(C)CC(O)CC(=O)[O-] (stereo not given) -21.1%
CCNc1ncc2nc(-c3ccc(F)cc3)c(=O)n(CCC#N)c2n1 -8.43%
N#C/C(=C1/SC[C@@H](c2ccc(Cl)cc2Cl)S1)n1ccnc1 0.0116% and -2.32% and -5.3%
